Test results reported in patent US11059808B2, “Substituted phenylpyrrolecarboxamides with therapeutic activity in HIV” (New York Blood Center, Inc., priority 2014, dated 2021).

Biological target: HIV (pNL4-3) heterodimeric (p66/p51) Reverse Transcriptase (RT) (Human immunodeficiency virus type 1 group M subtype B, UniProt P12497)
Assay: In vitro biochemical HIV-1 Reverse Transcriptase (RT) assay
Settings: not given
Description: Purified recombinant HIV (pNL4-3) heterodimeric (p66/p51) Reverse Transcriptase (RT) was purchased from a commercially available source. The assay was performed in 96-well filter plate, where RT activity was determined by the incorporation of radiolabeled deoxyribonucleotides into the newly synthesized DNA strand. […] Briefly, the reaction was carried out in a volume of 50 μl containing 50 mM Tris HCl, pH 7.8, 50 mM KCl, 5 mM MgCl2, 1 mM DTT, 50 μM each of dATP, dCTP, dGTP, 50 nM dTTP, 1 μCi of [^3H] dTTP (70-90 Ci/mM) and 5 nM template/primer. The reaction was initiated by the addition of 10 nM RT.
Compounds were diluted in 100% DMSO to 40 mM. Each compound was diluted in the appropriate reaction buffer for the biochemical assay per protocol. Serially diluted test compounds were added to the reaction followed by the addition of RT. The reaction mixture was incubated at 37° C. for 1 h, and then quenched by the addition of ice-cold trichloroacetic acid (TCA) to the final concentration of 10%. The plate was incubated at 4° C. for 1 h to precipitate the synthesized DNA, then rinsed 3-times with 10% TCA and 1 time with 70% ethanol. After addition of 25 μl scintillation fluid to completely dried wells, radioactivity was counted by MicroBeta scintillation counter (PerkinElmer). The reduction of radioactivity represents the potency of compound inhibition. (See Table 3)

Compound | IC50 [nM]
Cc1nc(C(NC(=O)c2ccc(-c3ccc(Cl)cc3)[nH]2)C2CCCCN2)sc1CO (single isomer, unassigned) [Compound 17] | 43400
Cc1nc(C(CN)NC(=O)c2ccc(-c3ccc(Cl)c(F)c3)[nH]2)sc1CO (single isomer, unassigned) [Compound 41] | 2560
NCC(NC(=O)c1ccc(-c2ccc(Cl)c(F)c2)[nH]1)c1ncc(CO)s1 (single isomer, unassigned) [Compound 90] | 2720
Cc1ccnc2c1NC(=O)c1cccnc1N2C1CC1 [Nevirapine, reference compound] | 200

Same assay, conditions: HIV-1 Reverse Transcriptase (RT) assay

Compound | IC50 [nM]
Cc1cn([C@H]2C[C@H](N=[N+]=[N-])[C@@H](COP(=O)(O)OP(=O)(O)OP(=O)(O)O)O2)c(=O)[nH]c1=O [AZT-TP, reference compound] | 8
NBD-556 | > 200000
